# Source: the supplement of paper PMC4466236
# In all, about 33,000 sequences were measured (“E-score (dimensionless, -0.5 to 0.5)”: median about -0.058, highest 2% from about 0.35 on). The list shows a part of the results.
# System: MvaT
# Experiment: PBM 8-mer E-score (mean of HK and ME arrays) (E-score (dimensionless, -0.5 to 0.5)); higher = stronger relative binding preference; most listed sequences are background and not binding sites
# Outline: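 Full-length P. aeruginosa MvaT, with glutathione S-transferase fused to its N-terminus (cloned into pTH6838 by isothermal assembly), was tested by protein binding microarray using a previously described protocol. Two universal double-stranded 60-mer arrays (ME and HK) were used, each with a constant 25-mer primer region and a variable 35-mer region covering all 8-mers. The rank-based 8-mer E-score (-0.5 to 0.5) is the mean of the two arrays, parsed with a custom Python script.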
row,Sequence,PBM 8-mer E-score
1,AGAGAAAC,-0.0279
2,CCAATGCA,-0.119
3,AAGGCGCA,-0.191
4,CCCTTCTA,-0.152
5,ACTGGCGC,-0.104
6,ACTCTGAT,0.0137
7,GGCACAGA,-0.147
8,AGCCGCCT,-0.243
9,CGCGGACG,-0.123
10,CAGCCTAG,-0.219
11,AAGCAAAT,0.0693
12,AGGACCAG,-0.184
13,ATCACGAG,-0.0754
14,AGCGTAAG,-0.172
15,ACGCTTTG,-0.117
16,GCTATCCC,-0.0801
17,CTGGTAAA,0.0988
18,ATTGAACG,0.1
19,ATCGTTGC,-0.0117
20,CCAGTAAG,-0.0309
21,GCGCAGCA,-0.211
22,GCTCCTAC,-0.185
23,ATGACTAC,0.0478
24,CTAAGCGA,-0.143
25,ACTGCGAA,-0.0565

row,Sequence,PBM 8-mer E-score
1,AGGGTAGA,-0.173
2,GGTACGGA,-0.173
3,CATGTCGC,-0.129
4,AGCTAGGC,-0.32
5,ACGTCCCA,-0.171
6,GGACGGAA,-0.0579
7,AGCCCCCG,-0.367
8,ACAAGATA,0.283
9,CGCCAACG,-0.157
10,GCAGCGAC,-0.227
11,GGTTGCCA,-0.106
12,AGAACGCG,-0.124
13,CCAGGAAA,0.0846
14,CGCGCGAA,0.0286
15,CCTTCCTA,-0.268
16,ACCATCTG,0.00967
17,AGTTAAAG,0.209
18,CCACTGTC,-0.0539
19,CCGCCTTC,-0.246
20,GCGTTTAA,0.17
21,AAGTGCGA,0.0158
22,CCCGAAGG,-0.384
23,CGCTTCTA,-0.166
24,TGCTAGCA,-0.138
25,GCACACTA,0.0972

row,Sequence,PBM 8-mer E-score
1,ATGATGAC,0.0741
2,AATCAAAG,0.0531
3,ACCGTGGC,-0.137
4,AGTCTATA,0.203
5,AATTAAAG,0.355
6,AACACATG,0.076
7,CTCAGCAA,-0.0212
8,CAGGGCTA,-0.129
9,AACGAAGT,0.0151
10,GACGGCGA,-0.0875
11,ACATTCCG,0.213
12,AAGCGAAA,0.106
13,AGATACCT,-0.0522
14,CTAGAAAG,0.0386
15,GCGGTGTA,0.0059
16,AAAGACGG,-0.0214
17,AACGTGTA,-0.173
18,GGGCAATA,0.0333
19,ATATCAGC,0.135
20,CGACTTTA,0.163
21,TGAATGAA,0.124
22,CAGTGCGG,-0.084
23,CTTTCTAC,0.0152
24,CGGGCAGA,-0.201
25,CACTCAAA,0.115

row,Sequence,PBM 8-mer E-score
1,GAACAACA,0.108
2,AGAAGACG,-0.0834
3,ATTACATA,0.226
4,AGATTACT,0.199
5,CTAAACTC,0.123
6,TCATTACA,0.178
7,CCGCTTGC,-0.27
8,CGCCTTCA,-0.288
9,AACTGGAA,0.113
10,AGTGTGTG,0.137
11,GAGGAACC,-0.187
12,CATCAATC,-0.217
13,CTTGTGAC,0.0235
14,CCATACCA,-0.145
15,ATGGACCG,-0.19
16,CATGGTTC,-0.116
17,ATTGAGGC,-0.0701
18,AATATGGA,0.172
19,ATACAGCC,-0.0313
20,CACCCCGC,-0.251
21,ACGCACCT,-0.13
22,GGTCTTAC,-0.186
23,ACTTGGCC,-0.0697
24,AGCTCAGA,-0.163
25,CAGGTTCC,-0.237

row,Sequence,PBM 8-mer E-score
1,ACTACCCA,-0.0208
2,CCTGCGGC,-0.139
3,AAACCACC,-0.0352
4,AGAAGATC,0.0577
5,CCCCGGGA,-0.277
6,CCAGTGCA,-0.0854
7,CCGAGCTC,-0.257
8,AGCAACAT,0.0701
9,GGACTAAC,0.024
10,CAGTCGAG,-0.263
11,ACATAAAT,0.301
12,AGGTCATA,-0.0479
13,GCCCCACC,-0.292
14,AGTGGCCC,-0.293
15,CAATCCGA,0.0113
16,AGCCTAAC,-0.0194
17,AAAGAATG,0.165
18,GACCTGGA,-0.222
19,AACCTCCT,-0.257
20,CCGTGCTC,-0.173
21,CCTCTGAA,-0.216
22,GGTATGAC,-0.144
23,ATATGTTC,0.231
24,CCTCGTCC,-0.302
25,TTACAAAA,0.165

row,Sequence,PBM 8-mer E-score
1,ATAATCAC,0.247
2,AAGCCGAT,-0.0766
3,GGCCCAGA,-0.188
4,GCGTAGAC,-0.299
5,CTGTTACC,-0.0445
6,TATTCCAA,0.284
7,TCGACCAA,0.00565
8,GTGGCGTA,0.0544
9,CATTCTTA,0.143
10,AGGAACTG,-0.184
11,ACCGCCAA,-0.0886
12,ACCGGCGC,-0.223
13,ATGTTGTG,0.205
14,GACGAGCA,-0.105
15,ACGACAGA,-0.0131
16,GTGGAATA,0.178
17,ACTCCGCG,-0.222
18,CATGCTGG,-0.146
19,CTCTGATC,-0.13
20,ATCCAAGA,-0.0611
21,CGCCAAAA,0.0577
22,ACTTCGAC,-0.0298
23,TGAGATAA,-0.0041
24,ACCGGGAG,-0.168
25,ATGTCTCC,-0.0135

row,Sequence,PBM 8-mer E-score
1,TAACACTA,0.248
2,ACCAAAAC,0.0892
3,GAATATCA,0.209
4,CGTGAAGA,-0.181
5,CTGGACGC,-0.223
6,GGACCGGA,-0.0076
7,AGGACCGG,-0.227
8,CAGATCCC,-0.0836
9,ATAAGATC,0.15
10,CACAACCG,-0.028
11,GGCAGCCA,-0.106
12,CCTTCTTA,0.0841
13,GCTCTAGA,-0.172
14,ATGGACGA,-0.11
15,CTACTTGA,-0.0549
16,ATGTGGAC,-0.162
17,ATAGTTCG,0.161
18,CTGTGAAA,0.0708
19,CAGGCTAG,-0.232
20,ACGCACGA,-0.161
21,CGTGTCAG,-0.0796
22,AAATTCCT,0.0408
